Measured values taken from patent US12528870B2, “Anti-c-Met antibody-drug conjugate and applications thereof” (REMEGEN CO., LTD., priority 2020, dated 2026).

Experiments:
[1] = target: T1, soluble ED protein (c-Met) (Homo sapiens, UniProt P08581); assay: ELISA affinity comparison of chimeric cAAJ8D6 and humanized AAJ8D6; format: binding; details: plate coated with soluble ED protein
T1 construct: A 96-well plate was coated with soluble ED protein and then incubated with diluted antibodies
Description: The affinities of chimeric cAAJ8D6 and the humanized antibody AAJ8D6 were determined by ELISA. A 96-well plate was coated with soluble ED protein and then incubated with diluted antibodies. ED-related antibodies were detected with an HRP-conjugated goat F(ab′)2 anti-human IgG Fc-specific secondary antibody.

c-Met protein = c-Met protein (Homo sapiens, UniProt P08581); assay: ELISA binding ability to c-Met antigen; details: c-Met protein coated at 2 μg/ml
c-Met protein, sequence (P08581 25-1390): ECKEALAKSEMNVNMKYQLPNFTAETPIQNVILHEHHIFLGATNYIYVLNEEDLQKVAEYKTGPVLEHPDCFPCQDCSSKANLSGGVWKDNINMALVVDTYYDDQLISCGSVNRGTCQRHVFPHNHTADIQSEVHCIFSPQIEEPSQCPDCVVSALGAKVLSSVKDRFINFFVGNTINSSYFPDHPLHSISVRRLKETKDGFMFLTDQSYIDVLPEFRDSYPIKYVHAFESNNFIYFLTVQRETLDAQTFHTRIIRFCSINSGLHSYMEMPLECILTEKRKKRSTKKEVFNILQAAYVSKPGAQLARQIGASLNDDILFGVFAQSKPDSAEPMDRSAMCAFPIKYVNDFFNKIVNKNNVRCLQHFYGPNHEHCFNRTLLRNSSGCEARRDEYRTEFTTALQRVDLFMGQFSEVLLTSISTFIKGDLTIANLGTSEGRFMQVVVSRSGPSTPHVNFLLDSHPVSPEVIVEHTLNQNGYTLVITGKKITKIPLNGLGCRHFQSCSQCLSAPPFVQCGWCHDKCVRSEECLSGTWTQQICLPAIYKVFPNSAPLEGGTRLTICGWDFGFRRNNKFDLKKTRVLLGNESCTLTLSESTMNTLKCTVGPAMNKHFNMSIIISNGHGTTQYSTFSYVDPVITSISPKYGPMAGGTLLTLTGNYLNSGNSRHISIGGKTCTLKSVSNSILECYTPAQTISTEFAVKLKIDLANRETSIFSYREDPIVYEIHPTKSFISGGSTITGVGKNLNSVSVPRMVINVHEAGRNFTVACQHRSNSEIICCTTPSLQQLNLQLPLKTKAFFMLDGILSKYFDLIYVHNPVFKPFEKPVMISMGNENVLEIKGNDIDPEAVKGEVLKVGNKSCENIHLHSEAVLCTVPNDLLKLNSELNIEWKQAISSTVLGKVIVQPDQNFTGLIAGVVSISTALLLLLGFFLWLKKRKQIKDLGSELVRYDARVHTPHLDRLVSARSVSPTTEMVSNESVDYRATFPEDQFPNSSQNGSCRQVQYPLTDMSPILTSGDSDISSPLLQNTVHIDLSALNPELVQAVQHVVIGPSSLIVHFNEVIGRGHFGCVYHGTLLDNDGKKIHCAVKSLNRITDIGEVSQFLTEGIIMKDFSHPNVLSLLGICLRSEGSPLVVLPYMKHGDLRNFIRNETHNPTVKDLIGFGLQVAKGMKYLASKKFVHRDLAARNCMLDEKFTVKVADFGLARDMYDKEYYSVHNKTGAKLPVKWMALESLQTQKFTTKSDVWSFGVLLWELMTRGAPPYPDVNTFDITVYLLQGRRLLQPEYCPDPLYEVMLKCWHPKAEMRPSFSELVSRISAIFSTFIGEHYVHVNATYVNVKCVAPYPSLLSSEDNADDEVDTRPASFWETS
Description: The c-Met protein was prepared with a diluent to a final concentration of 2 μg/ml, and added to a microplate at 100 μl per well, overnight at 4° C. The solution in the well was discarded, and the plate was washed three times with PBST. The plate was added with a blocking solution at 300 μl/well and incubated at 37° C. for 2 h. The solution in the well was discarded, and the plate was washed three times with PBST. AAJ8D6 antibody and ABT-700 (i.e., telisotuzumab, its sequence information can be found at https://extranet.who.int/soinn/mod/page/view.php?id=137&inn n=10366, the same below) were diluted to 9 concentrations, added to the 96-well plate and incubated for 2 h. The solution in the well was discarded, and the plate was washed three times with PBST. HRP detection antibody was prepared by adding diluent at a dilution of 1:5000, added at 100 μl per well, and incubated at 37° C. for 1 h. The solution in the well was discarded, and the plate was washed three times with PB ST. The plate was added with TMB color developing solution, incubated at room temperature for 2 min, and then added with Elisa stop solution.

HT29 cells = assay: Endocytosis experiment (pHAb dye, flow cytometry); format: cell-based, human; details: 10 μg/ml dye complex, 37° C.
From the text: HT29 cells were resuspended in 6-well plates at approximately 1×10^5 cells per well.

[2] = test system: MKN-45, SNU-620, HT29, BXPC-3 cells; assay: Cytotoxic activity, CCK-8, cells with different c-Met expression levels; format: cell-based, human; details: 72±2 h, 1.25-2000 ng/mL
Description: Cells MKN-45, SNU-620, HT29, and BXPC-3 with different c-Met expression levels in exponential doubling phase were seeded in 96-well plates, respectively, and incubated overnight in a 37° C., 5% CO2 incubator. […] They were added to the plate at 100 μL per well with triplicate wells set up for each concentration, and a blank control group was set as well. After 72±2 h of drug action, the plate was added with CCK-8 reagent, incubated at 37° C., 5% CO2 incubator for 1 to 4 h, and detected for OD value of each well at 450 nm of a microplate reader. […] Four-parameter fitting was performed on the inhibition rate and drug concentration to calculate IC50.

[3] = test system: human gastric cancer cell MKN-45 subcutaneously transplanted tumors; assay: MKN-45 subcutaneously transplanted tumor in Balb/c nude mice; format: in vivo; details: 3 mg/kg i.v. once a week x3
Description: 42 Balb/c nude mice aged 6-7 weeks were taken, and 0.1 mL of MKN-45 cell suspension (2.4×10^6 cells/mouse) was subcutaneously implanted in the back of the right armpit of the mice. […] Each group was administered intravenously, once a week, for a total of 3 times, and measured for long diameter and short diameter of tumor and body weight twice a week during the administration. On Day 21 after administration, the tumor inhibition rate (TGIRTV) was calculated for efficacy evaluation.
Tumor volume: TV=D1×D2^2/2, where D1 and D2 represent the long diameter and the short diameter of the tumor, respectively;
Relative tumor volume: RTV=TVn/TV0, where TV0 is the tumor volume before administration, and TVn is the tumor volume at each measurement;
Relative tumor inhibition rate: TGIRTV(%)=(1-TRTV/CRTV) 100%, TRTV means RTV of drug administration group or positive control group, and CRTV means RTV of negative control group.

[4] = test system: lung cancer LU2503 PDX tumor; assay: Mouse PDX model of lung cancer LU2503; format: in vivo, mice; details: 10 mg/kg i.v. once a week x2
From the text: The mouse PDX (patient-derived xenograft) model of lung cancer LU2503 was constructed by transplanting tumor tissue from human patients with lung cancer into severely immunodeficient mice, in which the gastric cancer tissue grew to form a transplanted tumor.
The tumor-bearing mice with good tumor growth were picked and euthanized, and the tumors were removed and cut into small pieces (2-3 mm in diameter), which were then inoculated on the right shoulder of the mice to establish a subcutaneous lung cancer model. […] The long diameter and short diameter of tumor and body weight were measured twice a week during the administration. On Day 21 after administration, the tumor inhibition rate (TGIRTV) was calculated for efficacy evaluation.
Calculation formula: • Tumor volume: TV=D1×D2^2/2, where D1 and D2 represent the long diameter and the short diameter of the tumor, respectively; • Relative tumor volume: RTV=TVn/TV0, where TV0 is the tumor volume before administration, and TVn is the tumor volume at each measurement; • Relative tumor inhibition rate: TGIRTV(%)=(1-TRTV/CRTV) 100%, TRTV means RTV of drug administration group or positive control group, and CRTV means RTV of negative control group.

T1 sequence (P08581 25-932 limits assumed): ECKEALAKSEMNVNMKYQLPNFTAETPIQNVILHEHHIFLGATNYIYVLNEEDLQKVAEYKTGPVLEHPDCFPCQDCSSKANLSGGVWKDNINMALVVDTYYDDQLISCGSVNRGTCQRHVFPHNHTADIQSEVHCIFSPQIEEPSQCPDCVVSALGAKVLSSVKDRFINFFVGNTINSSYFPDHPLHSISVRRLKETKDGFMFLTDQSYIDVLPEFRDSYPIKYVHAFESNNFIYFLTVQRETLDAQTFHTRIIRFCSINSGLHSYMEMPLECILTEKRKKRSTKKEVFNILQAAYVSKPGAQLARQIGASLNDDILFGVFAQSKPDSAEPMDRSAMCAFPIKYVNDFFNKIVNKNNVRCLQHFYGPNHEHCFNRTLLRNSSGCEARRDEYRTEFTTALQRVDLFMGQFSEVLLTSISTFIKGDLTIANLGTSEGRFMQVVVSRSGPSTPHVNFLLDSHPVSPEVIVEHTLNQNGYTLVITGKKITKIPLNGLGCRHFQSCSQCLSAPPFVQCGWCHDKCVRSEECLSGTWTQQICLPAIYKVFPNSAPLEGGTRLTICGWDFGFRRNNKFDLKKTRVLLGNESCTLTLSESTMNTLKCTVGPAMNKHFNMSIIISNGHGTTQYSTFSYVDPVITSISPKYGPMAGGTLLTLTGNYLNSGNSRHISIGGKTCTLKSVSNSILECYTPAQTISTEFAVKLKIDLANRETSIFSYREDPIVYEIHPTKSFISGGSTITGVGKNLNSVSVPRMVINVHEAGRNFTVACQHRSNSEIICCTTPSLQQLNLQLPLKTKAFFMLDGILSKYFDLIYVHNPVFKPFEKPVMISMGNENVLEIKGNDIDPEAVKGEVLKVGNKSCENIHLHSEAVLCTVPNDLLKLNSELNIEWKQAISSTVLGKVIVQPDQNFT

B1: AAJ8D6: humanized monoclonal antibody targeting c-Met; heavy chain SEQ ID NO: 9, light chain SEQ ID NO: 10 (antibody)
heavy: QVQLEQSGPEVVKPGASVKVSCKASGYSFTSYWMHWVRQAPGQGLEWMGMIDPSDSESRLNQKFKDRVTMTVDTPTSTVYMELSSPRSEDTAVYYCARSGYHGTSYWYFDVWGQGTLVTVSS[human IgG1 constant region not given here]
light: DIVMTQSPLSLPVTPGEPASISCRSSKSLLHSDGITYLYWYLQKPGQSPQLLIYQMSNLASGVPDRFSGSGSGTDFTLKISRVEAEDVGVYYCAQNLELPPTFGGGTKVEIKRTVAAPSVFIFPPSDEQLKSGTASVVCLLNNFYPREAKVQWKVDNALQSGNSQESVTEQDSKDSTYSLSSTLTLSKADYEKHKVYACEVTHQGLSSPVTKSFNRGEC
modifications: The sequence is synthesized
[1]
  EC50: 3.529 ng/mL
c-Met protein
  EC50: 0.54 ng/mL
HT29 cells; after 3 h
  endocytosis effect: about 90%
HT29 cells; after 24 h
  endocytosis in HT29 cells: significantly endocytosed
[2]
  cytotoxic activity / cytotoxic effect on target cells: no cytotoxic effect
[3]; D 0 (before administration)
  TV (mm^3) D 0: 200 ± 24 mm^3
[3]; D 21
  TV (mm^3) D 21: 1633 ± 77 mm^3
[3]; Day 21
  TGIRTV %: −15%
[4]; Day 0
  Tumor volume (mm^3) TVD0: 157.05 ± 9.21 mm^3
[4]; Day 21
  Inhibition rate (%): 37.60%
  Tumor volume (mm^3) TVD21: 1165.02 ± 163.71 mm^3
